Assay results from article PMC2424043, “Organelle-specific isoenzymes of plant V-ATPase as revealed by in vivo-FRET analysis” (BMC Cell Biology, 2008).
No constants are given. Whether binding was seen depends on the method and setting. Binding seen in cells or lysates may run through a third protein. Some binding calls cover weakened binding; strength is not graded here. Sequences can lack the tags named with a protein.

Tests used:
[1] = molecular target: T1, VHA-c3 (V-ATPase proteolipid subunit c, isoform 3) fused to CFP or YFP (A. thaliana) (UniProt P0DH93); test: FRET or BRET; in vivo FRET by sensitized acceptor emission (confocal laser scanning microscopy) in co-transfected A. thaliana mesophyll protoplasts; CFP fusion as donor, YFP fusion as acceptor; a FRET value of 8-10% is taken as background
T1 sequence: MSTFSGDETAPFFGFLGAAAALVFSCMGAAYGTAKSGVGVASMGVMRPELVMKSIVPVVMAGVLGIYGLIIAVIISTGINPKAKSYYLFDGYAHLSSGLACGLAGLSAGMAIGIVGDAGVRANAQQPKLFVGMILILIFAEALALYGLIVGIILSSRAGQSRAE

[2] = molecular target: T2, VHA-e2 (V-ATPase subunit e, isoform 2) fused to CFP or YFP (A. thaliana) (UniProt Q9SZ13); test: as above
T2 sequence: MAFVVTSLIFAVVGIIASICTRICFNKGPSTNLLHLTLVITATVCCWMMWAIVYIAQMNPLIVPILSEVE

[3] = molecular target: T3, VHA-c"1 (V-ATPase proteolipid subunit c", isoform 1) fused to CFP or YFP (A. thaliana) (UniProt Q9SZY7); test: as above
T3 sequence: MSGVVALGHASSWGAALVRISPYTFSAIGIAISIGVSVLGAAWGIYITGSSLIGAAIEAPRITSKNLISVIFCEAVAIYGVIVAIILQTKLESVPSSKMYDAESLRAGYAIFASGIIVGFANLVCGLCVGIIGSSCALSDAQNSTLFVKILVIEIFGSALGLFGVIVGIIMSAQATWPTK

[4] = molecular target: VHA-e1 (V-ATPase subunit e, isoform 1) fused to CFP or YFP (A. thaliana) (UniProt Q9FLN5); test: as above
[5] = molecular target: VHA-c"1 fused to the N-terminal or the C-terminal fragment of YFP (BiFC constructs) (A. thaliana) (UniProt Q9SZY7); test: split reporter; bimolecular fluorescence complementation in A. thaliana mesophyll protoplasts; YFP fragments fused to the C-terminus of VHA-c"; YFP fluorescence normalised to co-transfected 35S-CFP

B1: hybrid proteolipid subunit (VHA-c helices 3-4 and VHA-c"1 helices 3-4) fused to CFP (protein, UniProt P0DH93 80-164; Q9SZY7 88-180)
chain: NPKAKSYYLFDGYAHLSSGLACGLAGLSAGMAIGIVGDAGVRANAQQPKLFVGMILILIFAEALALYGLIVGIILSSRAGQSRAEQTKLESVPSSKMYDAESLRAGYAIFASGIIVGFANLVCGLCVGIIGSSCALSDAQNSTLFVKILVIEIFGSALGLFGVIVGIIMSAQATWPTK
binding [1]: binds

B2: VHA-e1 (V-ATPase subunit e, isoform 1) fused to CFP or YFP (natural protein, A. thaliana, UniProt Q9FLN5 1-70, looked up)
chain: MGFLITTLIFVVVGIIASLCVRICCNRGPSTNLLHLTLVITATVCCWMMWAIVYIAQMNPLIVPILSETE
notes: VHA-e1, A. thaliana, At5g55290, open reading frame without the stop codon; One molecule for the CFP and the YFP fusion; also called VHA-e isoform 1; AtVHA-e1; source: A. thaliana mesophyll protoplasts, transiently transfected, in living cells; not shown: CFP or YFP, C-terminal, kept
binding [2]: binds | binding [3]: no binding | binding [4]: binds

B3: VHA-e2 (V-ATPase subunit e, isoform 2) fused to CFP or YFP (natural protein, A. thaliana, UniProt Q9SZ13 1-70, looked up)
chain: T2 sequence
notes: VHA-e2, A. thaliana, At4g26710, open reading frame without the stop codon; One molecule for the CFP and the YFP fusion; also called VHA-e isoform 2; VHA-e2-CFP; source: A. thaliana mesophyll protoplasts, transiently transfected, in living cells; not shown: CFP or YFP, C-terminal, kept
binding [2]: binds

B4: VHA-c"1 (V-ATPase proteolipid subunit c", isoform 1) fused to CFP or YFP (protein, UniProt Q9SZY7 1-180)
chain: T3 sequence
binding [1]: binds | binding [3]: no binding

B5: VHA-c"_(trunc) (third and fourth helices of VHA-c"1) fused to CFP (domain or fragment, A. thaliana, UniProt Q9SZY7 88-180, looked up)
chain: QTKLESVPSSKMYDAESLRAGYAIFASGIIVGFANLVCGLCVGIIGSSCALSDAQNSTLFVKILVIEIFGSALGLFGVIVGIIMSAQATWPTK
notes: VHA-c"1 aa 88-180 (helices 3 and 4), A. thaliana; Intermediate construct of the hybrid in vector 35S-CFP-C; fused to the C-terminus of the fluorescent protein; also called truncated VHA-c"; VHA-c"1_(trunc); source: A. thaliana mesophyll protoplasts, transiently transfected, in living cells; not shown: CFP, N-terminal, kept
binding [1]: binds

B6: VHA-c"1 fused to the N-terminal or the C-terminal fragment of YFP (BiFC constructs) (protein, UniProt Q9SZY7 1-180)
chain: T3 sequence
binding [5]: no binding
